# Hit rate of the full screen: of about 410,000 compounds, about 260 (0.063%) were called active. This list was built around the results that the source calls inconclusive (neither active nor inactive); the mix of calls is not that of the screen. Calls follow the shape of the dose curve; as a rule, active = well fitted activation curve with a large enough effect; inconclusive = small, poorly fitted or top-dose-only effect; inactive = no such curve, though single readings can be large or run the other way. Potencies of inconclusive entries are left out as doubtful fits.
# Test: qHTS for compounds that reverse cellular toxicity of Amyloid beta (A-beta) peptide in yeast: Primary Screen; also: nearly all actives have a fitted effect of over 55% in size
# Conditions: yeast expressing A-beta42, growth rescue, OD600, 48 h; growth rescue: at 46.1 µM (top of the series), 0% DMSO, 100% iron-clioquinol control
# In short: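 Yeast A-beta toxicity model in growth medium with pinned compounds, 48 h at 30 C; growth read as absorbance at 600 nm. Normalized to FeCl3/clioquinol equimolar mix (positive) and DMSO (negative).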
# Potency is read from the fitted curve at half-maximal effect; tags tell the direction and shape of the fitted curve.
Compound,Potency,growth rescue
Cc1cccc(C(=O)NC(=S)NNC(=O)c2ccccc2Cl)c1,"inconclusive [activator, partial curve, poor fit]",–
O=C(NNC(=O)c1ccc(Cl)cc1Cl)c1ccncc1,"inconclusive [activator, single point]",–
COc1cccc(-c2ncc3ccccc3c2COC(=O)N2CCCCC2)c1,inactive,–
Cc1ccc(CCNC(=O)CN(C)S(=O)(=O)c2cnc[nH]2)cc1,"inconclusive [activator, partial curve, poor fit]",–
O=C(NCCC1=CCCCC1)C1COc2ccccc2O1 (centres undefined),"inconclusive [activator, full curve, poor fit]",–
Cc1cc(NC(=O)c2ccoc2C)ccc1Br,inactive,–
O=C(Nc1ccc(Cl)cc1C(F)(F)F)c1ccc(Cl)cc1,inactive,–
CCOC(=O)Cc1csc(NC(=O)NC2(C(F)(F)F)Oc3cc(Cl)c(Cl)cc3O2)n1,"inconclusive [activator, single point]",–
CCC(C)(O)c1[nH]c2ccc(C(F)(F)F)cc2c1C (centres undefined),active: 14.1 µM,–
Cc1ccccc1N=C(NOCc1ccccc1)c1nonc1N,"inconclusive [activator, partial curve, poor fit]",–
COC(=O)c1nc2n(n1)C(c1cc(OC)ccc1OC)C(C(=O)Nc1ccc(C)cc1C)=C(C)N2 (centres undefined),inactive,–
Brc1ccc(/C=N/Nc2ccc3ccccc3n2)cc1,–,inconclusive: -40.8% [activator]
Cc1ccccc1C(=O)Nc1cc(-c2ccc(Cl)cc2)nn1-c1ccccc1,inactive,–
CCSc1nc(CC)c2c(c1C#N)CCCC2,inactive,–
Clc1ccccc1CNc1ncnc2c1c(-c1ccccc1)cn2-c1ccccc1,inactive,–
CC(Nc1cccc2ccccc12)C(=O)N/N=C/c1ccc([N+](=O)[O-])cc1 (centres undefined),"inconclusive [activator, partial curve, poor fit]",–
COc1ccc(/C=N/Nc2c(Cl)cc(Cl)cc2Cl)cc1CN1CCOCC1,"inconclusive [activator, full curve, poor fit]",–
Cc1cccc(C)c1NC(=S)N/N=C/c1ccc(OCCC(C)C)cc1,"inconclusive [activator, partial curve, poor fit]",–
Cn1nc(C(F)(F)F)c(-c2ccc(Br)cc2)c1NC(=O)Nc1ccc(F)cc1F,"inconclusive [activator, partial curve, poor fit]",–
C/C(=N\NC(=S)Nc1c(C)cccc1C)c1cc2ccccc2o1,"inconclusive [activator, full curve, poor fit]",–
Cc1ccccc1C(=O)N1[C@@H](C(C)C)COc2cc(Br)ccc2S1(=O)=O,"inconclusive [activator, partial curve, poor fit]",–
CN1C(=O)c2ccc(N3CCCC3)cc2C1=O,inactive,–

Compound,Potency,growth rescue
CCOc1ccccc1NC(=S)N1CCN(c2ccc(OC)cc2)CC1,"inconclusive [activator, single point]",–
Cc1cccc2c1-c1sc(C(=O)N(C)c3cccc(C(F)(F)F)c3)cc1CO2,inactive,–
COc1cc(OC)cc(C(=O)Nc2nc(CC(=O)NC(C)c3ccccc3)cs2)c1 (centres undefined),"inconclusive [activator, full curve]",–
CC(=O)O[C@H]1[C@@H](O)[C@H](O)[C@H](Oc2c(O)c(C)c3c4c2[C@@H](C)CC[C@@H]4[C@@H](C)C[C@H]3C=C(C)C)O[C@H]1C,"inconclusive [activator, partial curve, poor fit]",–
O=C(CCC(=O)N1CCN(c2cccc(Cl)c2)CC1)c1cccs1,"inconclusive [activator, single point]",–
Cn1cccc1C(=O)NC(=O)COC(=O)CCNS(=O)(=O)c1cccc(C(F)(F)F)c1,"inconclusive [activator, partial curve, poor fit]",–
Cc1ccc2sc(N3CCN(C(=O)C4=COCCO4)CC3)nc2c1C,"inconclusive [activator, single point]",–
O=C(COc1ccc(Cl)cc1Cl)NNC(=S)NC(=O)c1ccco1,"inconclusive [activator, full curve]",–
CC1CCN(C(=O)c2ccc(-c3ccccc3Cl)o2)CC1,inactive,–
Cc1nn(Cc2c(F)c(F)c(F)c(F)c2F)c(C)c1NC(=O)c1ccc(COc2ccccc2Cl)o1,"inconclusive [activator, partial curve, poor fit]",–
CCOc1cccc(C2c3c(-c4cc(C)ccc4O)n[nH]c3C(=O)N2Cc2ccco2)c1 (centres undefined),"inconclusive [activator, single point]",–
COc1cc(NC(=O)CN2C(=O)C(c3ccccc3)=NC23CCCCCC3)cc(OC)c1,"inconclusive [activator, partial curve, poor fit]",–
CCOc1ccc(C2Nc3c(C)cccc3-c3cc(C)nn32)cc1 (centres undefined),"inconclusive [activator, single point]",–
O=C(c1ccco1)N1N=C(c2cccs2)CC1c1ccco1 (centres undefined),inactive,–
Cc1ccc(C(=O)Nc2nnc(S(=O)(=O)N3c4ccccc4CC3C)s2)cc1 (centres undefined),inactive,–
CC(=O)c1cccc(-c2ccnc3c2CC(C(=O)Nc2ccc(C(C)C)cc2)O3)c1 (centres undefined),"inconclusive [activator, single point]",–
COc1cc(C(=O)NC(=S)Nc2ccc(NC(=O)c3ccco3)cc2)cc(OC)c1OC,"inconclusive [activator, single point]",–
O=S(=O)(c1ccc(NC(=S)N/N=C/c2ccc(Oc3ccccc3)cc2)cc1)N1CCOCC1,inactive,–
Cc1nc(-c2ccccn2)nc(N2CCOCC2)c1Cl,"inconclusive [activator, partial curve, poor fit]",–
CCN1CCn2c3c(c4cccc(C)c42)CCCC31 (centres undefined),inactive,–
Fc1cccc(Cl)c1CSc1nnc(-c2ccncc2)o1,inactive,–
COc1cccc(/C=N/NC(=O)CNC(=O)/C=C\c2ccccc2)c1O,"inconclusive [activator, full curve, poor fit]",–

# Source: PubChem BioAssay AID1347071 (National Center for Advancing Translational Sciences (NCATS), 2019)
